The text below walks through data of the supplement of paper PMC7580552.

Counter-ions that a name gives are not always drawn. The list shows a part of the results. Most values come without repeats; read them as rough.
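Note: stationary (unshaken) cultures in 96-well plates, started at OD600 0.05 from mid-exponential cells, with compounds supplied from DMSO stocks.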

For this experiment, the system named is Escherichia coli W3110. Put plainly: planktonic growth (OD600) relative to untreated control; higher = more growth. The following applies: 10 µM; 20-24 h; 30 °C; TB.
Molecule `COc1ccc(OC)c(C(O)CNC(=O)CN)c1` (stereo unspecified) [Midodrine hydrochloride] displayed a planktonic growth of 100%.

With `CCCN1CCCC[C@H]1C(=O)Nc1c(C)cccc1C` [Ropivacaine hydrochloride], the planktonic growth turned out to be 96%.

`COc1cc(C(=O)NCc2ccc(OCCN(C)C)cc2)cc(OC)c1OC` [Trimethobenzamide hydrochloride] returned a planktonic growth of 99%. In the case of `CC(C)NCC(O)COc1ccc(CCOCC2CC2)cc1` (stereo unspecified) [Betaxolol hydrochloride], the planktonic growth amounted to 90%. Consider `CCc1nc(N)nc(N)c1-c1ccc(Cl)cc1` [Pyrimethamine], for which the planktonic growth stood at 95%. The molecule `CC(=O)[C@@]1(O)CC[C@H]2[C@@H]3C[C@H](C)C4=CC(=O)C=C[C@]4(C)[C@@]3(F)[C@@H](O)C[C@@]21C` [Fluorometholone] registered a planktonic growth of 103%. In turn, `C1CCC(C(CC2CCCCN2)C2CCCCC2)CC1` (stereo unspecified) [Perhexiline maleate] had a planktonic growth of 103%. The value for `CCOc1nc2cccc(C(=O)OCc3oc(=O)oc3C)c2n1Cc1ccc(-c2ccccc2-c2noc(=O)[nH]2)cc1` [Azilsartan kamedoxomil] was 95%; that for `O=C(O)c1cn(C2CC2)c2cc(N3CCNCC3)c(F)cc2c1=O` [Ciprofloxacin hydrochloride monohydrate] was 21%. `COc1ccc(-c2cc(=S)ss2)cc1` [Anethole-trithione] displayed a planktonic growth of 96%.

In turn, `C#CCN[C@@H]1CCc2ccccc21` [Rasagiline] had a planktonic growth of 91%. Regarding `CCOC(=O)O[C@]1(C(=O)OCCl)CC[C@H]2[C@@H]3CCC4=CC(=O)C=C[C@]4(C)[C@H]3[C@@H](O)C[C@@]21C` [Loteprednol etabonate], the planktonic growth was found to be 92%. With `Cc1ccc(NC(=O)c2ccc(CN3CCN(C)CC3)cc2)cc1Nc1nccc(-c2cccnc2)n1` [Imatinib], the planktonic growth was found to be 106%. `C[C@H]1c2cccc(O)c2C(=O)C2=C(O)[C@]3(O)C(=O)C(C(N)=O)=C(O)[C@@H](N(C)C)[C@@H]3[C@@H](O)[C@@H]21` [Doxycycline hydrochloride] registered a planktonic growth of 28%. Molecule `C[C@](N)(Cc1ccc(O)c(O)c1)C(=O)O` [Methyldopa (L,-)] returned a planktonic growth of 103%. `c1cnc(N2CCN(Cc3ccc4c(c3)OCO4)CC2)nc1` [Piribedil hydrochloride]: the planktonic growth is 91%. On to `Clc1ccc(C(Cn2ccnc2)OCc2ccsc2Cl)c(Cl)c1` (stereo unspecified) [Tioconazole], for which the planktonic growth was 89%. `CCCC1C(=O)N2C(N(C)C)=Nc3ccc(C)cc3N2C1=O` (stereo unspecified) [Azapropazone] displayed a planktonic growth of 101%. Consider `CN[C@@H]1[C@@H](O[C@H]2O[C@H](CO)[C@@H](N)[C@H](O)[C@H]2O)OC2C[C@@H](N)[C@@H](O[C@H]3[C@H](O)[C@@H](O)[C@H](N)C[C@@H]3N)OC2[C@@H]1O` (stereo partly specified) [Apramycin], for which the planktonic growth is 93%.

In the case of `Cc1c(-c2ccccc2)oc2c(C(=O)OCCN3CCCCC3)cccc2c1=O` [Flavoxate hydrochloride], the planktonic growth came to 108%. Molecule `NS(=O)(=O)c1cc2c(cc1Cl)NC(C(Cl)Cl)NS2(=O)=O` (stereo unspecified) [Trichlormethiazide] returned a planktonic growth of 93%. As to `CN[C@@H]1[C@H](O)[C@H](NC)[C@H]2O[C@@]3(O)C(=O)C[C@@H](C)O[C@H]3O[C@@H]2[C@H]1O` [Spectinomycin dihydrochloride], the planktonic growth turned out to be 70%. Then `CC(C)Nc1cccnc1N1CCN(C(=O)c2cc3cc(NS(C)(=O)=O)ccc3[nH]2)CC1` [Delavirdine], with 109%; and `Cc1onc(-c2ccccc2Cl)c1C(=O)N[C@@H]1C(=O)N2[C@@H]1SC(C)(C)[C@@H]2C(=O)O` [Cloxacillin sodium salt], with 85%; and `N[C@@H](C(=O)N[C@@H]1C(=O)N2C(C(=O)O)=C(Cl)CC[C@H]12)c1ccccc1` [Loracarbef], with 67%. On to `C#Cc1cccc(Nc2ncnc3cc(OCCOC)c(OCCOC)cc23)c1` [Erlotinib], for which the planktonic growth came to 99%. With `CN(C)CCC=C1c2ccccc2COc2ccccc21` [Doxepin hydrochloride], the planktonic growth was determined as 94%. Molecule `CC(C)[N+](C)(CCOC(=O)C1c2ccccc2Oc2ccccc21)C(C)C` [Propantheline bromide] displayed a planktonic growth of 94%. As to `COc1ccccc1Oc1c(NS(=O)(=O)c2ccc(C(C)(C)C)cc2)nc(-c2ncccn2)nc1OCCO` [Bosentan], the planktonic growth amounted to 99%. Turning to `Nc1ccccc1S(N)(=O)=O` [2-Aminobenzenesulfonamide], the planktonic growth was found to be 96%.

In the case of `Cn1cnc2c1c(=O)[nH]c(=O)n2C` [Theobromine], the planktonic growth is 96%. Then `CCN(CC)CCNC(=O)c1cc(Cl)c(N)cc1OC` [Metoclopramide monohydrochloride], with 105%; and `CCOc1ccc2ccccc2c1C(=O)N[C@@H]1C(=O)N2[C@@H]1SC(C)(C)[C@@H]2C(=O)O` [Nafcillin sodium salt monohydrate], with 104%; and `CN(C)C/C=C(/c1ccc(Br)cc1)c1cccnc1` [Zimelidine dihydrochloride monohydrate], with 82%. Then `CC(C)(CO)C(O)C(=O)NCCCO` (stereo unspecified) [Panthenol (D)], with 95%; and `C=C1/C(=C\C=C2/CCC[C@]3(C)[C@@H]([C@H](C)CCCC(C)C)CC[C@@H]23)C[C@@H](O)C[C@@H]1O` [Alfacalcidol], with 95%; and `Cc1ccc2c(c1)c1c3n2CCNC3CCC1` (stereo unspecified) [Pirlindole mesylate], with 96%. The value for `CCC[C@@H]1C[C@@H](C(=O)N[C@@H]([C@H]2O[C@H](SC)[C@H](O)[C@@H](O)[C@H]2O)[C@H](C)Cl)N(C)C1` [Clindamycin hydrochloride] was 70%; that for `O=C(N[C@H](CO)[C@H](O)c1ccc([N+](=O)[O-])cc1)C(Cl)Cl` [Chloramphenicol] was 36%. Molecule `CC(=O)O[C@@]12CO[C@@H]1C[C@H](O)[C@@]1(C)C(=O)[C@H](O)C3=C(C)[C@@H](OC(=O)[C@H](O)[C@@H](NC(=O)OC(C)(C)C)c4ccccc4)C[C@@](O)([C@@H](OC(=O)c4ccccc4)[C@H]21)C3(C)C` [Docetaxel] yielded a planktonic growth of 91%. The value for `Nc1ccn([C@@H]2O[C@H](CO)[C@@H](O)C2(F)F)c(=O)n1` [Gemcitabine] was 87%; that for `CN1C(=O)CC(c2ccccc2)C1=O` (stereo unspecified) [Phensuximide] was 94%; that for `CN(C)CCN(Cc1ccccc1)c1ccccn1` [Tripelennamine hydrochloride] was 111%.

`CC1CNc2c(cccc2S(=O)(=O)N[C@@H](CCCNC(=N)N)C(=O)N2CC[C@@H](C)C[C@@H]2C(=O)O)C1` (stereo partly specified) [Argatroban] gave a planktonic growth of 91%. Take `Clc1ccc(CSC(Cn2ccnc2)c2ccc(Cl)cc2Cl)cc1` (stereo unspecified) [Sulconazole nitrate]: the planktonic growth was 105%. Molecule `N=C(N)NC(=O)Cc1c(Cl)cccc1Cl` [Guanfacine hydrochloride] had a planktonic growth of 95%. Consider `COc1ccc2[nH]c([S+]([O-])Cc3ncc(C)c(OC)c3C)nc2n1` (stereo unspecified) [Tenatoprazole], for which the planktonic growth came out at 98%. `CN(C)CCOC(c1ccccc1)c1ccccc1` [Diphenhydramine hydrochloride] showed a planktonic growth of 92%.

Take `NC(Cc1cc(I)c(Oc2cc(I)c(O)c(I)c2)c(I)c1)C(=O)O` (stereo unspecified) [Thyroxine (L)]: the planktonic growth worked out at 107%. The molecule `CN(C)CC/C=C1/c2ccccc2Sc2ccc(Cl)cc21` [Chlorprothixene hydrochloride] had a planktonic growth of 96%. With `CC(=O)[C@H]1CC[C@H]2[C@@H]3CCC4=CC(=O)CC[C@]4(C)[C@H]3CC[C@]12C` [Progesterone], the planktonic growth came out at 96%. In turn, `CCCN(CCC)S(=O)(=O)c1ccc(C(=O)O)cc1` [Probenecid] had a planktonic growth of 91%. For the molecule `C[C@]12CC[C@@H]3c4ccc(O)cc4CC[C@H]3[C@@H]1CC[C@@H]2O` [Estradiol-17 beta], the planktonic growth was 105%. As to `CCC1(c2ccccc2)NC(=O)N(C)C1=O` (stereo unspecified) [Mephenytoin], the planktonic growth is 95%. The molecule `CCc1c(C)[nH]c2c1C(=O)C(CN1CCOCC1)CC2` (stereo unspecified) [Molindone hydrochloride] came in with a planktonic growth of 94%.

`Cc1ncc(CO)c(CO)c1O` [Pyridoxine hydrochloride] came in with a planktonic growth of 98%. Consider `CC1(C)[C@H](C(=O)O)N2C(=O)C[C@H]2S1(=O)=O` [Sulbactam], for which the planktonic growth was determined as 110%.

On to `N=C(N)NS(=O)(=O)c1ccc(N)cc1` [Sulfaguanidine], for which the planktonic growth is 105%. `CC(=O)Oc1ccccc1C(=O)O` [Acetylsalicylic acid] gave a planktonic growth of 104%. For `NC(=O)c1cc[n+](CC2=C(C(=O)[O-])N3C(=O)[C@@H](NC(=O)[C@@H](c4ccccc4)S(=O)(=O)O)[C@H]3SC2)cc1` [Cefsulodin sodium salt], the planktonic growth worked out at 93%.

In turn, `CC1=C(/C=C/C(C)=C/C=C/C(C)=C/C(=O)O)C(C)(C)CCC1` [Retinoic acid] registered a planktonic growth of 90%.

For `Clc1ccc(Cn2c(CN3CCCC3)nc3ccccc32)cc1` [Clemizole hydrochloride], the planktonic growth was found to be 95%. `COc1cc2nc(N(C)CCCNC(=O)C3CCCO3)nc(N)c2cc1OC` (stereo unspecified) [Alfuzosin hydrochloride] yielded a planktonic growth of 102%.

`CC(=O)O[C@]1(C(C)=O)CC[C@H]2[C@@H]3C=C(Cl)C4=CC(=O)[C@@H]5C[C@@H]5[C@]4(C)[C@H]3CC[C@@]21C` [Cyproterone acetate] came in with a planktonic growth of 95%. Molecule `Clc1ccc(CO/N=C(\Cn2ccnc2)c2ccc(Cl)cc2Cl)c(Cl)c1` [Oxiconazole Nitrate] registered a planktonic growth of 104%. As for `C#C[C@]1(OC(C)=O)CC[C@H]2[C@@H]3CCC4=CC(=NO)CC[C@@H]4[C@H]3CC[C@@]21CC` (mixture of isomers) [Norgestimate], the planktonic growth amounted to 99%. The molecule `O=C(O)COCCN1CCN(C(c2ccccc2)c2ccc(Cl)cc2)CC1` (stereo unspecified) [Cetirizine dihydrochloride] registered a planktonic growth of 93%. As for `N[C@@H]1CONC1=O` [D-cycloserine], the planktonic growth is 101%.

For `CN(C)/N=N/c1[nH]cnc1C(N)=O` [Dacarbazine], the planktonic growth was found to be 89%.

For `CC[N+](C)(C)Cc1ccccc1Br` [Bretylium tosylate], the planktonic growth is 97%.

As to `C[N+](C)(C)CCCCCC[N+](C)(C)C` [Hexamethonium dibromide dihydrate], the planktonic growth is 99%.
